Test results from the supplement of paper PMC5499739.
Over roughly 16,000 sequences, “Z-score” has its median near -0.37; the highest 2% begin near 3.2. The list shows a part of the results.

Each sequence was assayed on RBM10 RRM1-ZnF (GST-tagged construct) (assay: RNAcompete 7-mer binding Z-score; higher = stronger binding preference).
Method in brief: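 A designed pool of 241 399 RNAs, each up to 41 nt and transcribed from microarray-derived DNA templates, was used at 1.5 nmol with 20 pmol of GST-tagged RBM10 constructs. The mixture, in 1 ml Hepes pH 7.8 buffer with KCl, NaCl, glycerol, DTT, BSA and glutathione Sepharose beads, was held 30 min at 4°C and then washed four times for 2 min at 4°C. Bound RNA was read out by microarray hybridisation, and enrichment of each heptamer motif was scored as a one-sided Z-score over the probes carrying it.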

Row | Sequence | RNAcompete 7-mer binding Z-score
1 | UUCGUCU | -0.636
2 | AUUGGCA | 0.293
3 | UACCCCC | -0.386
4 | UAUGCAC | -0.422
5 | AUAGGGA | 2.86
6 | UACGAUU | -0.532
7 | CUGCCGA | -0.581
8 | CCUUACC | -0.805
9 | CUGAACG | -0.249
10 | ACUGGAC | 0.102
11 | UCUCGAU | -0.685
12 | GCAGUAG | 0.595
13 | CCCUUGU | -0.802
14 | GAGGACU | 0.485
15 | ACCACCU | -0.539
16 | GGACAAC | 0.374
17 | AAUUCCG | -0.834
18 | GAAUUCG | -0.21
19 | GCACAGC | -0.262
20 | GGUGAGC | 2.59
21 | UAUGCGA | 0.0885
22 | CAUCUCA | -0.798
23 | CUUCAUU | -0.753

Row | Sequence | RNAcompete 7-mer binding Z-score
24 | AAACCUG | -0.503
25 | CCGAUGU | -0.587
26 | AUUGAAC | -0.318
27 | AUACUGC | -0.532
28 | GCUGUGA | 0.124
29 | UAGUCCU | -0.607
30 | CUACCGC | -0.617
31 | UUAGGAA | 1.03
32 | AAUAUCU | -0.539
33 | ACGAUGG | 1.54
34 | CCCUCUA | -0.753
35 | AUAUACU | -0.454
36 | AUCACAG | -0.158
37 | AUCUUGU | -0.808
38 | AUUAAAA | -0.513
39 | GUAGCAU | -0.0317
40 | ACGCUUC | -0.85
41 | CGCAGUG | -0.0967
42 | AUUCACG | -0.646
43 | CAAGGUA | 1.5
44 | AACUAGA | -0.418
45 | GGUCGAU | 0.209
46 | GGUCACA | 0.322

Row | Sequence | RNAcompete 7-mer binding Z-score
47 | CAAGAUU | -0.607
48 | GCUCUGG | -0.0674
49 | UAUGGAC | 1.2
50 | CCGUUGC | -0.574
51 | GCUCAUU | -0.617
52 | CGGUCAU | -0.191
53 | UGCGCUU | -0.581
54 | UCGCUCA | -0.642
55 | CCGGCGC | -0.431
56 | AUGCUGA | 0.102
57 | AUAAAUA | -0.262
58 | ACCUCUC | -0.737
59 | GACAUUC | -0.75
60 | CCCCAGC | -0.175
61 | CCAUCUG | -0.772
62 | CCGGUAG | 0.248
63 | UCUCCCU | -0.519
64 | ACUUUGC | -0.902
65 | UCUCACA | -0.763
66 | AAGCAAU | -0.321
67 | UGAGCAC | -0.292
68 | AAAGGAU | 2.99
69 | CGAGGCU | 0.0658

Row | Sequence | RNAcompete 7-mer binding Z-score
70 | UUACAUU | -0.756
71 | GUCUUCG | -0.532
72 | CUGAUUC | -0.811
73 | UAUUCUU | -0.847
74 | CUUAGUC | -0.711
75 | GGUUCAU | -0.178
76 | CCGGGCU | -0.337
77 | GGCCAAC | -0.0577
78 | UUUGCUC | -0.867
79 | CAAGGGU | 2.65
80 | UUGAAUG | 0.131
81 | UUGUGAU | -0.347
82 | GCAUUGC | -0.246
83 | CACCAAA | -0.675
84 | GAUCUAC | -0.717
85 | CUUUCUC | -0.945
86 | GCCACCG | -0.171
87 | UCCUACA | -0.896
88 | UCAGAAC | -0.383
89 | UCUUAUC | -0.86
90 | CACAAGG | 0.764
91 | UGUCAUA | -0.552
92 | UACAUCC | -0.844
